“Also recorded” adds a separate entry of the source. Some entries of the source have several records that differ or are many. Only these are listed. The rule behind the calls is not given here. The source may hold further records. Values given together do not match, cause unknown; dose, time, organism, isomer or construct need not be as stated for each record. Records carry a tag for their origin. The letters are not those of the source and start again with each entry. Counts like (3×) give the number of equal values in this list.
System: CCRIS mutagenicity, Ames/micronucleus/aberration tests
Assay: CCRIS mutagenicity studies
[1] = Test System: MOUSE LYMPHOMA, Strain/Indicator: L5178Y (TK+/TK-), Metabolic Activation: NONE, Method: SUSPENSION/PLATE
[2] = Test System: MOUSE LYMPHOMA, Strain/Indicator: L5178Y (TK+/TK-), Metabolic Activation: RAT, LIVER, S-9, AROCLOR 1254, Method: SUSPENSION/PLATE
[3] = Test System: AMES SALMONELLA TYPHIMURIUM, Strain/Indicator: TA1535, Metabolic Activation: NONE, Method: STANDARD PLATE
[4] = Test System: AMES SALMONELLA TYPHIMURIUM, Strain/Indicator: TA1537, Metabolic Activation: NONE, Method: STANDARD PLATE
[5] = End Point: IN VITRO CHROMOSOMAL ABERRATIONS, Test System: CHL CELLS, Metabolic Activation: NONE
[6] = Test System: AMES SALMONELLA TYPHIMURIUM, Strain/Indicator: TA98, Metabolic Activation: NONE, Method: PREINCUBATION
[7] = Test System: AMES SALMONELLA TYPHIMURIUM, Strain/Indicator: TA1535, Metabolic Activation: NONE, Method: PREINCUBATION
[8] = Test System: AMES SALMONELLA TYPHIMURIUM, Strain/Indicator: TA100, Metabolic Activation: NONE, Method: STANDARD PLATE
[9] = Test System: Mouse lymphoma, Strain/Indicator: L5178Y (tk+/tk-), Metabolic Activation: None, Method: Suspension/plate
[10] = Test System: AMES SALMONELLA TYPHIMURIUM, Strain/Indicator: TA100, Metabolic Activation: RAT, LIVER, S-9, AROCLOR 1254, Method: STANDARD PLATE

O=C([O-])c1ccc2ccccc2c1.[Mn+2].[O-]C(O)c1ccc2ccccc2c1
mutagenic call [1]: inactive; negative. reevaluation of results: inconclusive [study A]; also recorded: inactive; negative [study B]
mutagenic call [2]: active; positive. reevaluation of results: equivocal [study A]; also recorded: active; positive [study B]

C[C@]12C=CC3=C4CCC(=O)C=C4CC[C@H]3[C@@H]1CC[C@@H]2O
mutagenic call [3]: inactive; negative; toxicity at 2000 and 3000 ug/plate [study A]; also recorded: inactive; negative [study B]
mutagenic call [4]: inactive; negative; toxicity at 2000 and 3000 ug/plate [study A]; also recorded: inactive; negative [study B]
mutagenic call (Test System: AMES SALMONELLA TYPHIMURIUM, Strain/Indicator: TA1538, Metabolic Activation: NONE, Method: STANDARD PLATE): inactive; negative; toxicity at 3000 ug/plate [study A]; also recorded: inactive; negative [study B]

CCN(C)N=O
mutagenic call (Test System: AMES SALMONELLA TYPHIMURIUM, Strain/Indicator: TA100, Metabolic Activation: MOUSE, LIVER, S-9, Method: PREINCUBATION): inactive; negative [study A] and active; positive [study B]

c1ccc(C2CO2)cc1 (configuration not stated)
mutagenic call [5]: active; positive (structural changes); authors report equivocal results for ploidy chang; also recorded: active; positive (structural changes)
mutagenic call [6]: active; positive [study A] and inactive; negative [study B]

O=[N+]([O-])c1ccc2c(c1)Oc1ccccc1O2
mutagenic call (Test System: AMES SALMONELLA TYPHIMURIUM, Strain/Indicator: TA98(NR), Metabolic Activation: NONE, Method: PREINCUBATION): inactive; negative and active; positive

Nc1cccc(N)n1
mutagenic call (Test System: AMES SALMONELLA TYPHIMURIUM, Strain/Indicator: TA1537, Metabolic Activation: NONE, Method: PREINCUBATION): active; positive and inactive; negative

CC(=O)CN(C)N=O
mutagenic call (Test System: AMES SALMONELLA TYPHIMURIUM, Strain/Indicator: TA100, Metabolic Activation: HAMSTER, LIVER, S-9, Method: PREINCUBATION): inactive; negative [study A] and active; positive [study B]
mutagenic call (Test System: AMES SALMONELLA TYPHIMURIUM, Strain/Indicator: TA100, Metabolic Activation: RAT, LIVER, S-9, Method: PREINCUBATION): inactive; negative [study A] and active; positive [study B]

O=[N+]([O-])c1ccc(Nc2ccccc2O)c([N+](=O)[O-])c1
mutagenic call [7]: active; positive [0.3 to 33 µg/plate] and inactive; negative [1 to 66 µg/plate]

CCN(CC)CCCC(C)Nc1ccnc2cc(Cl)ccc12 (configuration not stated)
mutagenic call [8]: inactive; negative [study A] and active; positive [study B]

[O-][Br+2]([O-])O
mutagenic call (Test System: AMES SALMONELLA TYPHIMURIUM, Strain/Indicator: TA97, Metabolic Activation: NONE, Method: PREINCUBATION): inactive; negative [study A] and active; positive [study B]

COc1nc(C(Cl)(Cl)Cl)c(Cl)c(OC)c1Cl
mutagenic call [9]: active; positive and inactive; negative

[N-]=[N+]=[N-]
mutagenic call [10]: inactive; negative [study A] and active; positive [study B]
mutagenic call (Test System: Ames Salmonella typhimurium, Strain/Indicator: TA100, Metabolic Activation: None, Method: Preincubation): active; positive (decrease in mutagenicity when 0.99-;5.90 mg/plate of chloroform extrac [study A]; also recorded: active; positive (decrease in mutagenicity when 1.82-7.30 mg/plate of methanol extract o [study A]; also recorded: active; positive [study B]

O=C(O)CCCl
mutagenic call (Test System: Ames Salmonella typhimurium, Strain/Indicator: TA1537, Metabolic Activation: None, Method: Preincubation): inactive; negative (2×); also recorded: inactive; negative (two experimental trials)

Cc1cc(-c2ccc(N/N=C3/C(=O)c4c(N)cc(S(=O)(=O)O)cc4C=C3S(=O)(=O)O)c(C)c2)ccc1N/N=C1/C(=O)c2c(N)cc(S(=O)(=O)O)cc2C=C1S(=O)(=O)O
mutagenic call (Test System: AMES SALMONELLA TYPHIMURIUM, Strain/Indicator: TA1538, Metabolic Activation: RAT, LIVER, S-9, AROCLOR 1254, Method: STANDARD PLATE): active; positive [study A] and inactive; negative [study B]

O=C(O)C(Cl)Cl
mutagenic call [5]: active; positive (structural changes); authors report equivocal results for ploidy chang; also recorded: active; positive (structural changes)
mutagenic call (Test System: Ames Salmonella typhimurium, Strain/Indicator: TA98, Metabolic Activation: None, Method: Preincubation): inactive; negative (ntp described results in one trial as equivocal); also recorded: inactive; negative

COC(=O)Nc1nc2ccccc2[nH]1
mutagenic call (End Point: IN VITRO CHROMOSOMAL ABERRATIONS, Test System: HUMAN PERIPHERAL LYMPHOCYTES, Metabolic Activation: NONE): inactive; negative [study A]; also recorded: inactive; negative; weakly positive at 25 um [study B]
mutagenic call (Test System: AMES SALMONELLA TYPHIMURIUM, Strain/Indicator: TA98, Metabolic Activation: RAT, LIVER, S-9, AROCLOR 1254, Method: STANDARD PLATE): active; positive [study A] and inactive; negative [study A] and inactive; negative [study B]

[O-][Cl+]O
mutagenic call (End Point: IN VIVO MICRONUCLEUS, Test System: BONE MARROW POLYCHROMATIC ERYTHROCYTES, Species: MOUSE, Strain/Sex: DDY/MALE, Route: IP): active; positive and inactive; negative

Nc1ccc2cc3ccccc3cc2c1
mutagenic call [3]: inactive; negative [study A] and active; positive [study B] and inactive; negative [study C]

O=C1N(CO)C(O)C(O)N1CO (configuration not stated)
mutagenic call [6]: inactive; negative [100 to 10000 µg/plate] and active; positive [333 to 10000 µg/plate]
mutagenic call (Test System: AMES SALMONELLA TYPHIMURIUM, Strain/Indicator: TA100, Metabolic Activation: HAMSTER, LIVER, S-9, AROCLOR 1254 (10%), Method: PREINCUBATION): inactive; negative [100 to 10000 µg/plate] and active; positive [333 to 10000 µg/plate]
mutagenic call (Test System: AMES SALMONELLA TYPHIMURIUM, Strain/Indicator: TA100, Metabolic Activation: RAT, LIVER, S-9, AROCLOR 1254 (10%), Method: PREINCUBATION): inactive; negative [100 to 10000 µg/plate] and active; positive [333 to 10000 µg/plate]

O=C1OCC(Cl)=C1Cl
mutagenic call [8]: inactive; negative [study A] and active; positive [study B]

CC(C)(OO)c1ccccc1
mutagenic call (Test System: AMES SALMONELLA TYPHIMURIUM, Strain/Indicator: TA102, Metabolic Activation: NONE, Method: STANDARD PLATE): active; positive [study A] and inactive; negative [study B]

C=CC(=O)OCC
mutagenic call [1]: active; positive [study A]; also recorded: active; positive [study B]; also recorded: active; positive. reevaluation of results: positive [study C]

Oc1c(Cl)ccc(Cl)c1Cl
mutagenic call (End Point: IN VITRO CHROMOSOMAL ABERRATIONS, Test System: CHINESE HAMSTER LUNG CELLS (CHL), Metabolic Activation: NONE): inactive; negative; authors report results from 48 hr treatment time as inconclusive; also recorded: inactive; negative

CCc1ccco1
mutagenic call [9]: inactive; negative and active; positive

CC(C)CON=O
mutagenic call [7]: active; positive [study A] and inactive; negative [study B]
mutagenic call [9]: active; positive; also recorded: active; equivocal (previously evaluated positive); also recorded: equivocal

CC/C(=C(/CC)c1ccc(O)cc1)c1ccc(O)cc1
mutagenic call [3]: inactive; negative; toxicity at 50 ug/plate [study A]; also recorded: inactive; negative [study B]
mutagenic call [4]: inactive; negative; toxicity at 50 ug/plate [study A]; also recorded: inactive; negative [study B]
mutagenic call [2]: active; positive [study A] and active; positive [study B] and inactive; negative [study C]
mutagenic call (Test System: MOUSE LYMPHOMA, Strain/Indicator: L5178Y (TK+/TK-), Metabolic Activation: RAT, LIVER, S-9, Method: SUSPENSION/PLATE): inactive; negative [study A] and active; positive [study B]

O=C(O)/C(Cl)=C(\C(=O)O)C(Cl)Cl
mutagenic call [8]: active; positive [study A] and inactive; negative [study B]

CC1(C)[C@H](C(=O)O[C@H](C#N)c2cccc(Oc3ccccc3)c2)[C@@H]1C=C(Cl)Cl
mutagenic call (End Point: In vitro chromosomal aberrations, Test System: Human peripheral blood lymphocytes): active; positive (structural changes); also recorded: active; positive (structural changes). commercial product containing 10% alpha-cypermet

O=C([O-])c1ccc2ccccc2c1.O=C([O-])c1ccc2ccccc2c1.[Pb+2]
mutagenic call [2]: active; positive. reevaluation of results: positive [study A]; also recorded: active; positive [study B]

O=C([O-])c1ccccn1.O=C([O-])c1ccccn1.O=C([O-])c1ccccn1.[Cr+3]
mutagenic call [1]: active; positive [study A]; also recorded: active; positive. reevaluation of results: positive [study B]
mutagenic call (Test System: MOUSE LYMPHOMA, Strain/Indicator: L5178Y (TK+/TK-), Metabolic Activation: RAT LIVER S-9, AROCLOR 1254, Method: SUSPENSION/PLATE): active; positive [study A]; also recorded: active; positive. reevaluation of results: positive [study B]

O=C1OCC(C(Cl)Cl)=C1Cl
mutagenic call [10]: active; positive [study A] and inactive; negative [study B]

CCSCCSP(=S)(OC)OC
mutagenic call [3]: inactive; negative [study A] and active; positive [study B]

Source: PubChem BioAssay AID1259407 (Chemical Carcinogenesis Research Information System (CCRIS), 2018)
